Laboratory results taken from the supplement of paper PMC9151546.
Repeats are few or missing, and single values can be far off.

Columns and labels:
[1] = test system: CHO-K1; experiment: relative survival (nuclei to bead ratio vs DMSO control) (% of vehicle control); higher = more surviving cells
Protocol: (§1)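 Flow-cytometric in vitro micronucleus assay (Litron MicroFlow) in CHO-K1 cells in 96-well plates, 19 concentrations (4.5-200 µM, n=1 per concentration). Without S9, cells were exposed for 24 h and sampled at 48 h. With Aroclor 1254-induced rat liver S9, cells were exposed for 3-4 h and sampled at 27-28 h. Read-outs are %MN and %hypodiploid nuclei relative to nucleated events, and relative survival as the nuclei-to-bead ratio versus the 1% DMSO vehicle control (x100).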

[2] = test system: CHO-K1; experiment: hypodiploid nuclei frequency (% of nucleated events); higher = more hypodiploid events (aneugenic)
Protocol: as §1

[3] = test system: CHO-K1; experiment: micronucleus frequency (% of nucleated events); higher = more micronuclei (genotoxic)
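Throughout, for hypodiploid nuclei frequency (% of nucleated events): hypodiploid nuclei gated on a flow cytometer with 488 nm excitation after SYTOX Green staining, cultures at 37 °C, positive controls vinblastine without S9 and cyclophosphamide with S9.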
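Throughout, for micronucleus frequency (% of nucleated events): cells lysed with nuclei stained by SYTOX Green, then micronucleus-gated events counted against nucleated events by flow cytometry with 488 nm excitation.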
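Throughout, for relative survival (nuclei to bead ratio vs DMSO control): Lysed-cell nuclei stained with SYTOX Green and counted against counting beads by flow cytometry at 488 nm excitation, with vinblastine (no S9) and cyclophosphamide (plus S9) as positive controls.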

CC(C)=CCC/C(C)=C/C=O [3,7-Dimethyl-2,6-octadienal]
Conditions	hypodiploid nuclei frequency, [2] [%]	micronucleus frequency, [3] [%]	relative survival, [1]
concentration: 4.5 (µM), S9 metabolic activation: with S9, exposure time: 3-4 hours	0.2	0.86	105
concentration: 4.5 (µM), S9 metabolic activation: without S9, exposure time: 24 hours	0.76	1.54	116
concentration: 5.63 (µM), S9 metabolic activation: with S9, exposure time: 3-4 hours	0.32	0.94	104
concentration: 5.63 (µM), S9 metabolic activation: without S9, exposure time: 24 hours	0.4	1.38	102
concentration: 7.04 (µM), S9 metabolic activation: with S9, exposure time: 3-4 hours	0.34	0.9	123
concentration: 7.04 (µM), S9 metabolic activation: without S9, exposure time: 24 hours	0.7	1.44	101
concentration: 8.8 (µM), S9 metabolic activation: with S9, exposure time: 3-4 hours	0.3	1.34	125
concentration: 8.8 (µM), S9 metabolic activation: without S9, exposure time: 24 hours	0.7	1.04	106
concentration: 11 (µM), S9 metabolic activation: with S9, exposure time: 3-4 hours	0.22	0.78	113
concentration: 11 (µM), S9 metabolic activation: without S9, exposure time: 24 hours	0.64	1.14	95.9
concentration: 13.7 (µM), S9 metabolic activation: with S9, exposure time: 3-4 hours	0.18	1.3	108
concentration: 13.7 (µM), S9 metabolic activation: without S9, exposure time: 24 hours	0.68	1.6	113
concentration: 17.2 (µM), S9 metabolic activation: with S9, exposure time: 3-4 hours	0.18	0.82	115
concentration: 17.2 (µM), S9 metabolic activation: without S9, exposure time: 24 hours	0.68	1.06	102
concentration: 21.5 (µM), S9 metabolic activation: with S9, exposure time: 3-4 hours	0.12	0.94	119
concentration: 21.5 (µM), S9 metabolic activation: without S9, exposure time: 24 hours	0.5	1.22	68.8
concentration: 26.8 (µM), S9 metabolic activation: with S9, exposure time: 3-4 hours	0.24	0.8	111
concentration: 26.8 (µM), S9 metabolic activation: without S9, exposure time: 24 hours	0.8	1.1	65.8
concentration: 33.6 (µM), S9 metabolic activation: with S9, exposure time: 3-4 hours	0.28	0.74	102
concentration: 33.6 (µM), S9 metabolic activation: without S9, exposure time: 24 hours	2.58	1.22	54.7
concentration: 41.9 (µM), S9 metabolic activation: with S9, exposure time: 3-4 hours	0.3	0.9	103
concentration: 41.9 (µM), S9 metabolic activation: without S9, exposure time: 24 hours	–	–	40
concentration: 52.4 (µM), S9 metabolic activation: with S9, exposure time: 3-4 hours	0.22	0.94	92.9
concentration: 52.4 (µM), S9 metabolic activation: without S9, exposure time: 24 hours	1.14	1.36	87.9
concentration: 65.5 (µM), S9 metabolic activation: with S9, exposure time: 3-4 hours	0.22	0.88	110
concentration: 65.5 (µM), S9 metabolic activation: without S9, exposure time: 24 hours	1.02	1.72	99.1
concentration: 81.9 (µM), S9 metabolic activation: with S9, exposure time: 3-4 hours	0.24	1.22	99.8
concentration: 81.9 (µM), S9 metabolic activation: without S9, exposure time: 24 hours	0.94	1.44	75.9
concentration: 102 (µM), S9 metabolic activation: with S9, exposure time: 3-4 hours	0.3	1.52	101
concentration: 102 (µM), S9 metabolic activation: without S9, exposure time: 24 hours	1.04	1.3	71.1
concentration: 128 (µM), S9 metabolic activation: with S9, exposure time: 3-4 hours	0.28	1.2	107
concentration: 128 (µM), S9 metabolic activation: without S9, exposure time: 24 hours	0.96	1.74	88.2
concentration: 160 (µM), S9 metabolic activation: with S9, exposure time: 3-4 hours	0.12	1.1	109
concentration: 160 (µM), S9 metabolic activation: without S9, exposure time: 24 hours	1.36	1.9	72.1
concentration: 200 (µM), S9 metabolic activation: with S9, exposure time: 3-4 hours	0.2	1.46	106
concentration: 200 (µM), S9 metabolic activation: without S9, exposure time: 24 hours	1.46	2.04	75.9
